Over roughly 33,000 sequences, “E-score (-0.5 to 0.5)” has its median near -0.01; the highest 2% begin near 0.26. The list shows a part of the results.
These sequences were tested against Ste12 (UniProt P13574) (assay: PBM E-score (8-mer binding enrichment) (E-score (-0.5 to 0.5)); higher = stronger / more preferred TF binding; most listed sequences are background and not binding sites). Settings: protein concentration: 200 nM; construct: GST-DNA-binding domain.
Summary of the method: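 Each ungapped eight-base word and its reverse complement, pooled, received an E-score from the Universal PBM Analysis Suite. Underlying scans, normalised with masliner, recorded fluorescent anti-GST bound to GST-tagged yeast transcription factors. These were applied at about 100-200 nM to universal all-10-mer Agilent arrays double-stranded by primer extension.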

Row | Sequence | PBM E-score
1 | AGTCTTCC | -0.111
2 | CGGATGCA | -0.0904
3 | GGTGAGAC | 0.179
4 | GAATTTGC | -0.0621
5 | CCCCGTCA | 0.0491
6 | ACGTATAA | -0.00789
7 | ACCCCTAG | 0.0358
8 | ATTCCAGC | -0.0173
9 | GCCCCGGA | 0.118
10 | GCAACCCA | -0.135
11 | ACACGCAA | 0.168
12 | TAGGATCA | 0.042
13 | AACGCGAG | 0.0302
14 | GACACTTA | 0.0701
15 | GCTGCAGA | -0.0847
16 | AAACACTT | 0.12
17 | ATGTCAAA | 0.11
18 | GTTATTAA | 0.188
19 | AACTGCAG | 0.0346
20 | CCAAACCA | 0.0357
21 | GGCGCACC | -0.217
22 | AGACGTAT | 0.0342
23 | AGTGATCA | -0.22
24 | AGAACTCA | 0.117
25 | ATAAAGGC | -0.053

Row | Sequence | PBM E-score
26 | ACCCGTAC | -0.266
27 | AGGCGGGC | 0.0738
28 | ACATGTCA | -0.0706
29 | AATTAGAA | 0.26
30 | CGGGTCTA | 0.0075
31 | AGTAGTGG | 0.0657
32 | ACTGACCC | -0.248
33 | CTAGTCCA | -0.157
34 | CCCGACCG | -0.0202
35 | GAATCGGA | 0.0142
36 | GGCAACGA | -0.0606
37 | ACGATACG | -0.259
38 | CGGTCTCC | -0.251
39 | CGAAGGGA | -0.114
40 | CAGACACC | -0.074
41 | CAAAGTGA | 0.0829
42 | CAACCCCA | 0.181
43 | AGTTTGAT | 0.172
44 | AGCCGCTA | -0.0154
45 | CATCAGGA | 0.0459
46 | AGGTGTCG | -0.179
47 | CTGGCCCA | -0.214
48 | CAACTTAC | -0.0144
49 | AGACACCC | -0.0371
50 | AATCAAGC | -0.0888

Row | Sequence | PBM E-score
51 | ATAATATA | 0.301
52 | ATCACGTG | -0.0478
53 | CGCTCCAG | 0.0315
54 | GAGTGCGC | 0.0193
55 | AATTAATA | 0.359
56 | ACTCAAAT | 0.00744
57 | ACAACAAC | 0.177
58 | GACTTAAC | -0.183
59 | ACGCTGTG | -0.038
60 | ATATGATA | 0.271
61 | TCAGAGCA | -0.0242
62 | GCACGGCA | -0.00321
63 | AAATTCCA | 0.152
64 | GGGAGGTA | 0.0975
65 | AAGCTTCG | 0.038
66 | ACTTATTC | 0.0394
67 | ACCCGGTC | -0.202
68 | CCTCTCTC | -0.111
69 | ACTGATGC | -0.0861
70 | AGTGTCTG | -0.0973
71 | CATAATCA | 0.165
72 | CCGGCTTC | 0.0151
73 | GAGGGTGC | -0.102
74 | AAGTTGAT | 0.0307
75 | TCGTGCAA | 0.0959

Row | Sequence | PBM E-score
76 | CGCATGAC | -0.0101
77 | ACCTACCC | -0.00868
78 | ATCTCACA | 0.09
79 | CCAATATC | 0.135
80 | GTCCGGGA | 0.0647
81 | ATAATTCC | 0.0343
82 | CCTCACGA | -0.0519
83 | TGCGAAAA | 0.158
84 | TAACATTA | 0.201
85 | AGCAAAGC | 0.065
86 | CTCAATGA | -0.121
87 | CCCCGTAG | -0.186
88 | GGTTCTCA | 0.0128
89 | CACTTCGG | -0.124
90 | AGTGGCAG | 0.153
91 | ATTATATG | 0.149
92 | CATCCAAA | 0.0524
93 | CGTGCGAC | -0.212
94 | TAGGACCA | -0.192
95 | ACCGGAAC | 0.0586
96 | ACCCGTTG | -0.178
97 | AGACGTTG | 0.0686
98 | CCTCTCAG | -0.133
99 | GACTCCGC | -0.0539
100 | GGCGCTAA | 0.0659

Row | Sequence | PBM E-score
101 | CTTTGCAA | 0.073
102 | ACTTTAGG | -0.0109
103 | AAATCGAT | 0.0768
104 | GTCGGGCA | -0.0518
105 | ACCTAGAG | -0.0674
106 | AGTAGTTC | 0.1
107 | CAAGCGCC | -0.00833
108 | CACAGGAC | -0.0988
109 | AGGGTTGC | 0.0231
110 | ATTATTGA | 0.166
111 | GAGCCTAC | 0.0221
112 | ATGAAACG | 0.484
113 | CCCCGTAA | 0.0581
114 | CCAGCCAC | -0.0775
115 | AAATGTTG | 0.0289
116 | TACATGGA | 0.00432
117 | AGAATGCT | -0.0802
118 | GAAAAGTC | 0.0583
119 | AAGAGAGG | -0.174
120 | CCTCTTAG | -0.13
121 | CTGGTTAA | 0.177
122 | GGAATAAC | -0.0739
123 | ATGTGGAA | 0.0686
124 | CCCTCCGC | -0.0697
125 | AATACACA | 0.203

Row | Sequence | PBM E-score
126 | CGGCCCAC | -0.181
127 | GGCATCGA | -0.165
128 | AGACGCCG | 0.11
129 | TAGGGATA | -0.0286
130 | GAAGCCGA | 0.0515
131 | ACTTCAGA | 0.113
132 | TAGCGCCA | -0.116
133 | CAACTGAG | 0.121
134 | GACAACCA | -0.0266
135 | CGGTCAAC | 0.143
136 | AACCGGTG | -0.137
137 | ACGTGTGA | -0.0755
138 | ATAACGCC | 0.0996
139 | ACTGTTCG | 0.0638
140 | ATCGCGTA | -0.176
141 | TAAACGTA | -0.115
142 | AACTCTTC | -0.196
143 | AGACGAGG | -0.16
144 | AGTAATTA | 0.0978
145 | CCTCCTTA | -0.0904
146 | ACCTATGG | -0.219
147 | CTATCCCA | 0.0173
148 | GAGAAACC | 0.123
149 | CACTCGCG | 0.127
150 | GCTGGGCC | -0.186

Row | Sequence | PBM E-score
151 | CGGGAATC | -0.119
152 | TATTCACA | 0.193
153 | TAGTTTGA | 0.0916
154 | CTCGTACA | -0.128
155 | TCCATGAA | 0.0413
156 | CGAGCAAC | -0.18
157 | GGTTACCA | 0.0908
158 | ACGGCCAT | -0.107
159 | GCCCCCGC | -0.095
160 | GACGCTGA | -0.039
161 | AGCAAGCA | -0.0749
162 | AACTGTGT | 0.153
163 | GCTTGACA | 0.0364
164 | CTGTTAAG | -0.0711
165 | ATTGTTAA | 0.261
166 | CACCGCTA | -0.0115
167 | CGGCCAAA | 0.0355
168 | GTCGATTA | 0.00079
169 | TCACGTAA | 0.0317
170 | CCGTGTTA | -0.0178
171 | ACCTTTAG | -0.0123
172 | ACTAAGGC | -0.123
